Data from PubChem BioAssay AID248 (DTP/NCI, 2004).
Toxic doses and inconclusive results are not listed. For part of its entries the source gives two or more results. The other results are left out here. An entry can have further records. The records of an entry repeat one measurement across runs, samples, wells, individuals or studies. Counts like (3×) say how often a value occurs here. Numbered stars: 1 amine (or outer) side, 2 acyl side, 3 side chain; on linkers, the order of the positions; unused ones are H or OH. Bridge positions count the residues as written; N and C are the ends. Square brackets hold non-standard residues; d marks the D form. Peptide text beside a SMILES is read from it. I, II: the chains in the order shown. Actinocin(1to9) = Cc1c2oc3c(C)ccc(C(=O)[*:2])c3nc-2c(C(=O)[*:1])c(N)c1=O; NMeV = CN[CH](C(=O)O)C(C)C; Sar = CNCC(=O)O

Test system: L1210 leukemia ip in BDF1 mice, survival T/C
Assay: NCI In Vivo Anticancer Drug Screen. Data for tumor model L1210 Leukemia (intraperitoneal) in B6D2F1 (BDF1) mice
Conditions: endpoint: mean survival time, higher = longer survival
[1] = dose: 100.0 mg/kg/injection, schedule: Q01DX001 (ip), vehicle: saline

c1ccc(-c2nn3c(-c4ccccc4)nnc3o2)cc1
T/C (dose: 100.0 mg/kg/injection, schedule: Q01DX009 (ip), vehicle: saline with Tween-80): 95 % of control and 194 % of control

O=c1[nH][nH]c(=O)n1-c1ccccc1
T/C (dose: 400.0 mg/kg/injection, schedule: Q04DX002 (ip), vehicle: saline with Tween-80): 95 % of control and 195 % of control

OCCN1CCN(CC/C=C2\c3ccccc3Sc3ccc(Cl)cc32)CC1
T/C (dose: 50.0 mg/kg/injection, schedule: Q04DX003 (ip), vehicle: saline): 108 % of control and 150 % of control

CN(C)N=Nc1cn[nH]c1C(N)=O
T/C (dose: 400.0 mg/kg/injection, schedule: Q04DX003 (ip), vehicle: Klucel (hydroxypropylcellulose) (HPC)): 101 % of control and 168 % of control

CCC(C)C1NC(=O)C(NC(=O)c2c3nc4c(C(=O)NC5C(=O)NC(C(C)C)C(=O)N6CCCC6C(=O)N(C)CC(=O)N(C)C(C(C)C)C(=O)OC5C)ccc(C)c4oc-3c(C)c(=O)c2N)C(C)OC(=O)C(C(C)C)N(C)C(=O)CN(C)C(=O)C2CCCN2C1=O (centres undefined) (I: TIP[Sar][NMeV] / II: TVP[Sar][NMeV]; ester I:1-I:C, II:1-II:C; linker I:N-II:N via Actinocin(1to9); configuration not given here)
T/C (dose: 50.0 micrograms/kg/injection, schedule: Q01DX009 (ip), vehicle: saline): 120 % of control and 174 % of control

COc1cc(C=Nc2cccc(F)c2)ccc1N(CCCl)CCCl
T/C [1]: 124 % of control and 162 % of control

CN(O)C(N)=O
T/C (dose: 175.0 mg/kg/injection, schedule: Q01DX009 (ip), vehicle: saline): 118 % of control (2×) and 166 % of control

CSc1ncc(Br)c(Sc2nc(N)nc3nc[nH]c23)n1
T/C (dose: 2.0 mg/kg/injection, schedule: Q01DX Z (ip), vehicle: other): 119 % of control and 152 % of control

OC1C2C=CC(C2)C1O (centres undefined)
T/C [1]: 98 % of control and 174 % of control
